Measurements from patent US20250064840A1, “DRUG DELIVERY SYSTEMS BASED ON ENDOPEROXIDES USEFUL IN DIAGNOSIS AND THERAPY, AND METHODS THEREOF” (FACULDADE DE FARMÁCIA DA UNIVERSIDADE DE LISBOA, priority 2021, published 2025).

Assays:
[1] = tested on: HCT116 cells; assay: Iron competition assay with DFO, MTS assay; assay type: cell-based, human; conditions: 24 hours
[2] = tested on: HCT116 cells; conditions: 1 μM, 24 hours incubation

SMILES: COc1cccc2c1C(=O)c1c(O)c3c(c(O)c1C2=O)C[C@](O)(C(=O)CO)C[C@H]3O[C@@H]1CC(NC(=O)OCC2=CCCCC23OOC2(OO3)C3CC4CC2CC(O)(C4)C3)[C@@H](O)[C@@H](C)O1 (stereo partly drawn) [Compound IIe]
- induction of cell death (cell viability, MTS) ([1]; 10 μM compound alone, versus DMSO): induces cell death
- reduction in potency with DFO versus compound alone ([1]; 10 μM compound together with 1 μM DFO): 7%

SMILES: COc1cccc2c1C(=O)c1c(O)c3c(c(O)c1C2=O)C[C@@](O)(C(=O)CO)C[C@@H]3O[C@H]1C[C@H](N)[C@H](O)[C@H](C)O1 [Doxorubicin, doxorubicin, reference compound]
- cellular localization of fluorescence [2]: accumulated in the nucleus
